Residue numbers refer to the chain shown, from its start. Some of the results follow.
B1: AGAUAGC (DNA:RNA)
RNA: GGGAGACCGGAAUUCAGAUUGUCCAGAUAGCUUAAAUCCCGUCGUAGCCACCA
DNA 1: CAATCTGAATTCCGGTCTCCC
DNA 2: TGGTGGCTACGACGGGATT
B2: UCGACAU (DNA:RNA)
RNA: GGGAGACCGGAAUUCAGAUUGUCCUCGACAUUUAAAUCCCGUCGUAGCCACCA
DNA 1: CAATCTGAATTCCGGTCTCCC
DNA 2: TGGTGGCTACGACGGGATT
B3: AGGUCUC (DNA:RNA)
RNA: B1 RNA with A27G, A29C, G30U
DNA 1: CAATCTGAATTCCGGTCTCCC
DNA 2: TGGTGGCTACGACGGGATT
B4: AAUACAC (DNA:RNA)
RNA: B2 RNA with U25A, C26A, G27U, U31C
DNA 1: CAATCTGAATTCCGGTCTCCC
DNA 2: TGGTGGCTACGACGGGATT
B5: AGGCGUA (DNA:RNA)
RNA: B1 RNA with A27G, U28C, A29G, G30U, C31A
DNA 1: CAATCTGAATTCCGGTCTCCC
DNA 2: TGGTGGCTACGACGGGATT
B6: UGAUAGU (DNA:RNA)
RNA: B1 RNA with A25U, C31U
DNA 1: CAATCTGAATTCCGGTCTCCC
DNA 2: TGGTGGCTACGACGGGATT
B7: CCUCAGA (DNA:RNA)
RNA: B1 RNA with A25C, G26C, A27U, U28C, C31A
DNA 1: CAATCTGAATTCCGGTCTCCC
DNA 2: TGGTGGCTACGACGGGATT
B8: CUCUGCU (DNA:RNA)
RNA: B1 RNA with A25C, G26U, A27C, A29G, G30C, C31U
DNA 1: CAATCTGAATTCCGGTCTCCC
DNA 2: TGGTGGCTACGACGGGATT
B9: CUUGUUA (DNA:RNA)
RNA: GGGAGACCGGAAUUCAGAUUGUCCCUUGUUAUUAAAUCCCGUCGUAGCCACCA
DNA 1: CAATCTGAATTCCGGTCTCCC
DNA 2: TGGTGGCTACGACGGGATT
B10: UUUUAUG (DNA:RNA)
RNA: B9 RNA with C25U, G28U, U29A, A31G
DNA 1: CAATCTGAATTCCGGTCTCCC
DNA 2: TGGTGGCTACGACGGGATT
B11: UGAAUAU (DNA:RNA)
RNA: B2 RNA with C26G, G27A, C29U
DNA 1: CAATCTGAATTCCGGTCTCCC
DNA 2: TGGTGGCTACGACGGGATT
B12: CUGGGCC (DNA:RNA)
RNA: B9 RNA with U27G, U29G, U30C, A31C
DNA 1: CAATCTGAATTCCGGTCTCCC
DNA 2: TGGTGGCTACGACGGGATT
B13: UGGGGCA (DNA:RNA)
RNA: B9 RNA with C25U, U26G, U27G, U29G, U30C
DNA 1: CAATCTGAATTCCGGTCTCCC
DNA 2: TGGTGGCTACGACGGGATT
B14: UUCCUGG (DNA:RNA)
RNA: B9 RNA with C25U, U27C, G28C, U30G, A31G
DNA 1: CAATCTGAATTCCGGTCTCCC
DNA 2: TGGTGGCTACGACGGGATT
B15: CUAGGUC (DNA:RNA)
RNA: B9 RNA with U27A, U29G, A31C
DNA 1: CAATCTGAATTCCGGTCTCCC
DNA 2: TGGTGGCTACGACGGGATT
B16: GUGGAUU (DNA:RNA)
RNA: B9 RNA with C25G, U27G, U29A, A31U
DNA 1: CAATCTGAATTCCGGTCTCCC
DNA 2: TGGTGGCTACGACGGGATT
B17: UAAUACA (DNA:RNA)
RNA: B1 RNA with A25U, G26A, G30C, C31A
DNA 1: CAATCTGAATTCCGGTCTCCC
DNA 2: TGGTGGCTACGACGGGATT
B18: GUCUCUU (DNA:RNA)
RNA: B9 RNA with C25G, U27C, G28U, U29C, A31U
DNA 1: CAATCTGAATTCCGGTCTCCC
DNA 2: TGGTGGCTACGACGGGATT
B19: GGAGGUA (DNA:RNA)
RNA: B9 RNA with C25G, U26G, U27A, U29G
DNA 1: CAATCTGAATTCCGGTCTCCC
DNA 2: TGGTGGCTACGACGGGATT
B20: UCUUUCA (DNA:RNA)
RNA: B9 RNA with C25U, U26C, G28U, U30C
DNA 1: CAATCTGAATTCCGGTCTCCC
DNA 2: TGGTGGCTACGACGGGATT
B21: GAGUAGU (DNA:RNA)
RNA: B1 RNA with A25G, G26A, A27G, C31U
DNA 1: CAATCTGAATTCCGGTCTCCC
DNA 2: TGGTGGCTACGACGGGATT
B22: GGCCCAA (DNA:RNA)
RNA: B2 RNA with U25G, C26G, G27C, A28C, U31A
DNA 1: CAATCTGAATTCCGGTCTCCC
DNA 2: TGGTGGCTACGACGGGATT
B23: UGAGUAG (DNA:RNA)
RNA: B1 RNA with A25U, U28G, A29U, G30A, C31G
DNA 1: CAATCTGAATTCCGGTCTCCC
DNA 2: TGGTGGCTACGACGGGATT
B24: CUAUAUA (DNA:RNA)
RNA: B9 RNA with U27A, G28U, U29A
DNA 1: CAATCTGAATTCCGGTCTCCC
DNA 2: TGGTGGCTACGACGGGATT
B25: UGCACAG (DNA:RNA)
RNA: B2 RNA with C26G, G27C, U31G
DNA 1: CAATCTGAATTCCGGTCTCCC
DNA 2: TGGTGGCTACGACGGGATT
B26: GCUAAGU (DNA:RNA)
RNA: B2 RNA with U25G, G27U, C29A, A30G
DNA 1: CAATCTGAATTCCGGTCTCCC
DNA 2: TGGTGGCTACGACGGGATT
B27: UUAAACG (DNA:RNA)
RNA: B1 RNA with A25U, G26U, U28A, G30C, C31G
DNA 1: CAATCTGAATTCCGGTCTCCC
DNA 2: TGGTGGCTACGACGGGATT
B28: AUAGUGU (DNA:RNA)
RNA: B1 RNA with G26U, U28G, A29U, C31U
DNA 1: CAATCTGAATTCCGGTCTCCC
DNA 2: TGGTGGCTACGACGGGATT
B29: CACUGGC (DNA:RNA)
RNA: B1 RNA with A25C, G26A, A27C, A29G
DNA 1: CAATCTGAATTCCGGTCTCCC
DNA 2: TGGTGGCTACGACGGGATT
B30: UUCUUGC (DNA:RNA)
RNA: B1 RNA with A25U, G26U, A27C, A29U
DNA 1: CAATCTGAATTCCGGTCTCCC
DNA 2: TGGTGGCTACGACGGGATT
B31: CACCUGU (DNA:RNA)
RNA: B9 RNA with U26A, U27C, G28C, U30G, A31U
DNA 1: CAATCTGAATTCCGGTCTCCC
DNA 2: TGGTGGCTACGACGGGATT

Molecular target: T1, RBFOX1 RRM (Homo sapiens, UniProt Q9NWB1 109-208)
T1 sequence: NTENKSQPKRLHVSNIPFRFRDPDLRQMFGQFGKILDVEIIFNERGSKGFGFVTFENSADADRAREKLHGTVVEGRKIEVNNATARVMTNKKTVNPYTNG
Test: EMSA; HiTS-Eq, 1 nM pool, 10 min; buffer printed only for the single-RNA assays: 10 mM Tris pH 7.5, 150 mM NaCl, 3.4 mM EDTA, 0.001% NP-40, 30 C
Settings: tags: His6 N-terminal (pET28a); label: 5' 32P
Method in brief: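 Purified RbFox RRM (wild type or mutant) was equilibrated for 10 min in 50 µL with 1 nM of a 5′-radiolabelled pool of RNA with 7 randomized nucleotides, its flanks annealed to DNA oligonucleotides, across increasing protein concentrations. Free RNA was separated by 8% native PAGE, excised, reverse-transcribed, PCR-barcoded and sequenced on an Illumina HiSeq 2500. Relative association constants came from read-count changes of each variant against the control reaction, normalised to the cognate motif.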

Binder	binding signal
B1	0.0117 KA relative to UGCAUGU
B2	0.00497 KA relative to UGCAUGU
B3	0.0131 KA relative to UGCAUGU
B4	0.00022 KA relative to UGCAUGU
B5	0.00915 KA relative to UGCAUGU
B6	0.0208 KA relative to UGCAUGU
B7	0.00876 KA relative to UGCAUGU
B8	0.0179 KA relative to UGCAUGU
B9	0.00857 KA relative to UGCAUGU
B10	0.0146 KA relative to UGCAUGU
B11	0.0104 KA relative to UGCAUGU
B12	0.0274 KA relative to UGCAUGU
B13	0.0222 KA relative to UGCAUGU
B14	0.0123 KA relative to UGCAUGU
B15	0.0121 KA relative to UGCAUGU
B16	0.0248 KA relative to UGCAUGU

Binder	binding signal
B17	0.00193 KA relative to UGCAUGU
B18	0.016 KA relative to UGCAUGU
B19	0.0125 KA relative to UGCAUGU
B20	0.0106 KA relative to UGCAUGU
B21	0.00842 KA relative to UGCAUGU
B22	0.00717 KA relative to UGCAUGU
B23	0.0177 KA relative to UGCAUGU
B24	0.00266 KA relative to UGCAUGU
B25	0.017 KA relative to UGCAUGU
B26	0.0127 KA relative to UGCAUGU
B27	0.00886 KA relative to UGCAUGU
B28	0.0112 KA relative to UGCAUGU
B29	0.00998 KA relative to UGCAUGU
B30	0.0232 KA relative to UGCAUGU
B31	0.00677 KA relative to UGCAUGU

Reference: paper PMC9911399, “Two distinct binding modes provide the RNA-binding protein RbFox with extraordinary sequence specificity”
